Several values for one entry are separate records, joined by “and”; a condition that tells them apart may be missing. Identical values can stand only once. Out of some 48,000 compounds screened, about 1,200 (2.5%) were called active. Another 2% or so got no clear call; they are omitted.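 The calls were made as follows: active = activation of at least 60% and not above a set upper limit (about 1 call in 100 departs from these limits); inconclusive = activation of 40% to 60%, or above that upper limit; inactive = activation under 40%.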 This is one part of the list.
Molecular target: Probable G-protein coupled receptor 32 (Homo sapiens) (UniProt O75388)
UniProt O75388, sequence (O75388 whole entry, looked up): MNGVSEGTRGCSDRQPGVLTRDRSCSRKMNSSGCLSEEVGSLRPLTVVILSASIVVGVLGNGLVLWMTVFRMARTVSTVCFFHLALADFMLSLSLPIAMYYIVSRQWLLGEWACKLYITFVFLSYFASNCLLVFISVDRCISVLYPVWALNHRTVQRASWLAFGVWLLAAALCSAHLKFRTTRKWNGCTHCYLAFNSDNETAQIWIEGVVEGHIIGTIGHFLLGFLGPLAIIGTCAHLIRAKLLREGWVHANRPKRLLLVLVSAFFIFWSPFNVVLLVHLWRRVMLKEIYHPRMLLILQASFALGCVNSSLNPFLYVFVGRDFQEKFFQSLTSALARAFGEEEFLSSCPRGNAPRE
Test: qHTS for Agonists of Human Resolvin D1 Receptor DRV1; also: 0% is about no effect
Details: CHO-K1 GPR32 beta-arrestin PathHunter luminescence, 90 min; at 76.9 µM; hits give high values; zero percent set by DMSO-only wells
In short: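 Readings come from a cell-based beta-arrestin complementation format: CHO-K1 GPR32 stable cells (2,500/well) treated 90 min with compounds, then beta-Gal substrate added for 1 h before chemiluminescence imaging.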

Row | SMILES | activation
1 | COc1ccccc1Cn1c(CNS(=O)(=O)c2ccc3c(c2)CCCC3)nc2cccnc21 | inactive: -16.5%
2 | Cc1cccc(Nc2nc(-c3ccccc3)c3cc(C)ccc3n2)c1 | inactive: -33.4%
3 | O=C(CSc1nc(-c2ccccc2)[nH]c1-c1ccccc1)Nc1ccc2c(c1)OCO2 | inactive: -6.83%
4 | Cc1nc2sccn2c(=O)c1S(=O)(=O)Nc1ccc(N2CCN(S(C)(=O)=O)CC2)cc1 | inactive: 29.9%
5 | CCC(=O)N1c2ccccc2CC1C(=O)NCCN1CCN(c2cccc(C)c2C)CC1 (stereo not given) | inactive: 2.09%
6 | Cc1ccc(-c2nc3ccccc3o2)cc1NC(=O)c1cccc2c(Cl)cccc12 | inactive: -4.22%
7 | NCCCC(N)(C(=O)O)C(F)F (stereo not given) | inactive: -53.6% and inactive: -0.916%
8 | CC(C)OCCCn1c(SCC(=O)Nc2ccc(F)cc2)nc2c(sc3ccccc32)c1=O | inactive: -3.69%
9 | Cc1ccc(NC(=O)CSc2nnc3[nH]c(=O)cc(C)n23)cc1Cl | inactive: 14.5%
10 | Cc1sc2c(c1C)c(=O)n(-c1ccccc1)c(=O)n2CC(=O)c1ccc(Cl)cc1 | inactive: -6.67%
11 | COc1cccc(CNC(=O)CCc2nnc3n(CC(C)C)c(=O)c4ccccc4n23)c1 | inactive: 2.9%
12 | CC(C)CC(=O)N1CC(=O)Nc2ccc(F)cc2C1c1ccccc1 (stereo not given) | inactive: -7.71%
13 | CCC(Sc1nc2c(sc3ccccc32)c(=O)n1CCCC(=O)NC1CCCC1)C(=O)Nc1cccc(OC)c1 (stereo not given) | inactive: -15.2%
14 | O=[N+]([O-])c1cc(-c2nc(-c3ccccc3)no2)ccc1N1CCCC1 | inactive: 2.81%
15 | Cc1ccccc1NCc1cccn1-c1nnc(N2CCOCC2)s1 | inactive: 15.5%
16 | Cc1ccc(C2=NN(CCC(=O)NCCc3cccc(C)c3)C(=O)CC2)cc1 | inactive: -24.3%
17 | COc1ccc(Cn2c(NCC(C)C)nc3c2c(=O)n(C)c(=O)n3C)cc1 | inactive: -4.27%
18 | O=C(CSc1oc(-c2cccs2)nc1S(=O)(=O)c1ccccc1)Nc1ccc(F)cc1 | inactive: -19.6%
19 | CN(C(=O)CSc1nc2ccc(NC(=O)c3ccccc3)cc2s1)c1ccccc1 | inactive: 9.51%
20 | CCOc1ccccc1/C=C/c1onc(C)c1S(=O)(=O)N1CCC(C(=O)N2CCCCC2)CC1 | inactive: -4.61%
21 | COc1ccc(OC)c(CNC(=O)c2cnc(N(C)C)nc2)c1 | inactive: 3.46%
22 | CCOC(=O)CSc1nc(-c2ccc(OC)cc2)cc(C(F)(F)F)c1C#N | inactive: -3.57%
23 | Cc1ccc(-n2nc(C)c3c(C(=O)Nc4ccc(C)cc4Cl)cc(C)nc32)cc1 | inactive: -2.26%
24 | COc1cc(CN(C(=O)c2ccc(C)cc2)c2ccccn2)cc(OC)c1OC | inactive: 18.2%
25 | COc1ccc(C(=O)CC2(O)C(=O)N(CCc3ccccc3)c3ccc(Br)cc32)cc1OC (stereo not given) | inactive: -17%
26 | COc1cccc(-n2c(=O)c3c4c(sc3n(Cc3ccccc3C#N)c2=O)CCCC4)c1 | inactive: -0.855%
27 | Cc1ccccc1-c1noc(-c2ccc(NC3CCCC3)c([N+](=O)[O-])c2)n1 | inactive: -7.81%
28 | O=C(Cn1nc2c(cc1=O)CCCC2)NCc1ccccc1 | inactive: -4.88%

Row | SMILES | activation
29 | COc1ccc(-n2nc(C(=O)N3CCN(c4cccc(C)c4)C(C)C3)c3c4ccccc4n(C)c3c2=O)cc1Cl (stereo not given) | inactive: 2.34%
30 | O=S(=O)(c1ccc2nc(Nc3ccc(Br)cc3F)ccc2c1)N1CCCC1 | inactive: -12.4%
31 | CCOC(=O)c1cnc2ccc(OC(F)(F)F)cc2c1Nc1ccccc1C(=O)O | inactive: -5.97%
32 | CCC1Oc2ccc(C)cc2N(CC(=O)NCCc2ccccc2)C1=O (stereo not given) | inactive: -18.4%
33 | COc1cccc(/C=C/c2nc(C#N)c(N3CCCCCC3)o2)c1 | inactive: -6.24%
34 | Cc1ccc(NC(=O)CCCN2C(=O)COc3ccc(C)cc32)c(Cl)c1 | inactive: -22.8%
35 | CCOC(=O)c1cnn2c(C(F)(F)F)cc(-c3ccc(Br)cc3)nc12 | inactive: -7.07%
36 | COc1ccc(-c2cnc(C)o2)cc1S(=O)(=O)Nc1cccc(C(F)(F)F)c1 | inactive: -5.47%
37 | O=C(Nc1cccc(C(F)(F)F)c1)C1CCN(S(=O)(=O)c2cccc3nsnc23)CC1 | inactive: 14%
38 | Cc1ccccc1-c1noc(CSc2nc(-c3ccc(F)cc3)cc(=O)[nH]2)n1 | inactive: -7.1%
39 | COc1ccc(-n2nnnc2SCC(=O)NCCc2ccccc2)cc1 | inactive: -12.4%
40 | COC(=O)Cc1c(C)c2ccc3c(c2oc1=O)CN(Cc1ccc(C)cc1)CO3 | inactive: -11.2%
41 | O=C(Nc1ccc(OCc2cc(=O)n3c4c(sc3n2)CCCC4)cc1)c1ccc(F)cc1 | inactive: -3.32%
42 | Cc1ccc(NC(=O)Cn2nc(C(F)(F)F)c3c2CCC3)cc1C | inactive: -8.28%
43 | CC(C)COc1ccc(C(=O)Nc2onc3c2CCCC3)cc1 | active: 114%
44 | CCOc1ccc(CCNC(=O)CCn2c(=O)c3cccn3c3ccc(F)cc32)cc1 | inactive: -15.2%
45 | NC(=O)C1CCN(c2ncnc3c2cnn3-c2cccc(Cl)c2)CC1 | inactive: 10.7%
46 | COc1ccc(-c2noc(-c3ccc(NCc4ccco4)c([N+](=O)[O-])c3)n2)cc1OC | inactive: -7.22%
47 | Cc1cccc(CNC(=O)CCCN2C(=O)c3cccnc3Oc3ccccc32)c1 | inactive: -12.8%
48 | CCOc1ccc(C(=O)NCCc2sc(-c3cccc(F)c3)nc2C)cc1OCC | inactive: -0.823%
49 | CCc1ccc(N2CC(c3nc4ccccc4n3Cc3ccccc3C)CC2=O)cc1 (stereo not given) | inactive: -26.2%
50 | Cc1cccc(Cn2c(CNC(=O)c3ccccc3)nc3ccccc32)c1 | inactive: 5.7%
51 | CC(C)OCCCNC(=O)c1c2c(nc3ccccc13)C(=O)N(C1CCCCC1)C2 | inactive: -8.54%
52 | Cc1ccn2c(Nc3ccc(C(C)C)cc3)c(-c3ccsc3)nc2c1 | inactive: -21.7%
53 | CC(=O)c1ccc(NC(=O)CSc2nnc(NC(=O)NC3CCCCC3)s2)cc1 | inactive: -0.609%
54 | Cc1cc(C)cc(Nc2ncnc3sc4c(c23)CCCC4)c1 | inactive: -6.1%
55 | Cc1cc(C)c(NC(=O)Nc2sc3nc4n(c(=O)c3c2C)CCC(C)CC4)c(C)c1 (stereo not given) | inactive: -10.5%
